Measurements as given in the supplement of paper PMC10338343.
± gives the standard deviation. Over roughly 6,600 sequences, “pre-steady-state target cleavage rate” has its median near 0.07; the highest 2% begin near 0.72. This is a selection; strong and weak results do not stand in their true shares.

The sequences below were run on MIWI (PIWIL1) piRISC loaded with Kctd7 piRNA (30 nt) (assay: pre-steady-state target cleavage rate (min^-1); MIWI and MILI are mouse PIWI proteins and EfPiwi is from a freshwater sponge; tags in brackets are library labels; higher = faster piRNA-guided slicing of the target). Details: guide: Kctd7 piRNA 5'p-UGUUAAUCUCUCAGAGAAGGUGACAGUGAU; auxiliary factor: 500 nM mouse GTSF1.
In short: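 Sequencing of uncleaved targets, normalised to depth and to weakly complementary targets, was the readout of this Cleave-'n-Seq assay. A transcribed, DNA-blocked target RNA library (0.1 nM) was mixed with 1 nM active affinity-purified piRISC carrying one synthetic guide, with or without 500 nM GTSF1 partner protein, in HEPES–potassium acetate buffer at 33 °C for 0–8 or 0–960 min. Three trials were pooled, k3 was capped at 0.0001 min^-1, and a burst-and-steady-state fit gave the pre-steady-state cleavage rate.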
With UAGACUGUCACCUUCUCAGAGAGAUUUUGA the “pre-steady-state target cleavage rate” value was 0.0141 ± 0.0054. In the case of UAGACUGUCACCAUCUCUGAGAGAUUUACA, the “pre-steady-state target cleavage rate” value is reported as 0.23 ± 0.033. In the case of UUCACUGUCUCCUUCUCUGAGAGAAUAACA, the “pre-steady-state target cleavage rate” value is reported as 0.278 ± 0.042. UAGACUGACAGCUUCUCUGAGAGAUUAACA was tested, and the “pre-steady-state target cleavage rate” value was 0.64 ± 0.037. For UAGUGUGUCACCAACUCUGAGAGAUUAAGA, the “pre-steady-state target cleavage rate” value was 0.044 ± 0.011. With UAGUGUGUCACCUUCUCGGAGAGAUUAACA the “pre-steady-state target cleavage rate” value was 0.232 ± 0.014. In the case of UAGAGAGUCACCUUCUCUGAGAGAUUUUGA, the “pre-steady-state target cleavage rate” value is reported as 0.0566 ± 0.018. In the case of UAGUCAGUCACCUUGUCUGAGAGAUUAACA, the “pre-steady-state target cleavage rate” value is reported as 0.182 ± 0.025. For UUCACUGUCACCUUCGUCUGAGAGAUUAACA, the “pre-steady-state target cleavage rate” value was 0.11 ± 0.019. UAGUGUGUCACCUUCUCUGAGAGAAAAACA was tested, and the “pre-steady-state target cleavage rate” value was 0.111 ± 0.022. For UUCACUGUCACCUUCAGAGAGAGAUAUUGA, the “pre-steady-state target cleavage rate” value was 0.022 ± 0.011. With UAGUCUGUGACCUUCUCUGAGAGAUUAUGA the “pre-steady-state target cleavage rate” value was 0.0556 ± 0.013. For UAGUCUGUCACCCUUCUCUGAGAGAUUAACA, the “pre-steady-state target cleavage rate” value was 0.5 ± 0.037. For UAGACUGUCACCAACUCUGAGAGAUUAACA, the “pre-steady-state target cleavage rate” value was 0.373 ± 0.039. For UACACUGUCACCUUCUCUGAGAAAUUAACA, the “pre-steady-state target cleavage rate” value was 0.189 ± 0.021. In the case of UAGUGACUCACGUUCACUGAGAGAUUAACA, the “pre-steady-state target cleavage rate” value is reported as 0.215 ± 0.025. In the case of AUCACUGUCACCUUCUCUGAGAGUUUAUCA, the “pre-steady-state target cleavage rate” value is reported as 0.753 ± 0.19. For AUCACUGUGUGCUUCUCUGAGAGAUUAAGA, the “pre-steady-state target cleavage rate” value was 0.00894 ± 0.0029. With UACACUGUCUCCUUCACUGAGAGAUUAACA the “pre-steady-state target cleavage rate” value was 0.353 ± 0.025. UAGUGACACAGCUUCUCAGAGAGAUUAACA was tested, and the “pre-steady-state target cleavage rate” value was 0.0162 ± 0.0039. In the case of UAGACUGUCACCUUCUCUGAAGAUUAACA, the “pre-steady-state target cleavage rate” value is reported as 0.00926 ± 0.0017. For UAGUGUGCACCUUCUCUGAGAGAUUAACA, the “pre-steady-state target cleavage rate” value was 0.515 ± 0.045. With UAGUGUGACACCUUCUCUGACAGAUUAACA the “pre-steady-state target cleavage rate” value was 0.203 ± 0.018. In the case of UACACUGUCACCUUGUCUGAGAGUUUAACA, the “pre-steady-state target cleavage rate” value is reported as 0.442 ± 0.11. UAGUGUGACACCUUCUCAGAGAGAUUAACA was tested, and the “pre-steady-state target cleavage rate” value was 0.188 ± 0.017. With UAGUGACAGACCUUCUCUCAGAGAUUAUCA the “pre-steady-state target cleavage rate” value was 0.0128 ± 0.0053. In the case of UUCACUGUCACCUUCUCUGAGAGUUUAUGA, the “pre-steady-state target cleavage rate” value is reported as 0.71 ± 0.18. With UAGUGUGUCACCUUCUCUGAGACAAUAACA the “pre-steady-state target cleavage rate” value was 0.117 ± 0.031. For UUCACUCUCAGCUUCUCUGAGAGAUUAACA, the “pre-steady-state target cleavage rate” value was 0.177 ± 0.019. With UAGUGACAGUCCUUCCCUGAGAGAUUAACA the “pre-steady-state target cleavage rate” value was 0.0208 ± 0.0049. In the case of UAGACUGUCACCUACUCUGAGAGAUUUACA, the “pre-steady-state target cleavage rate” value is reported as 0.254 ± 0.034. In the case of AUCACUGUCACCUAGACUGAGAGAUUAACA, the “pre-steady-state target cleavage rate” value is reported as 0.0469 ± 0.011. UAGUGAGUCAGGUUCUCUGAGAGAUUAAGA was tested, and the “pre-steady-state target cleavage rate” value was 0.0225 ± 0.0047. UACACUGACACCUUCUCUGACAGAUUAACA was tested, and the “pre-steady-state target cleavage rate” value was 0.384 ± 0.032. In the case of UAGUGACUCACCUUCACUGAGAGAAUAACA, the “pre-steady-state target cleavage rate” value is reported as 0.046 ± 0.017. For UAGUCUGUCACCUUUCUCUGAGAGAUUAACA, the “pre-steady-state target cleavage rate” value was 0.606 ± 0.026. UACACUGUCACCUUUCUGAGAGAUUAACA was tested, and the “pre-steady-state target cleavage rate” value was 0.444 ± 0.027. UAGUCUGUCACCUUCUCUGAGAGAUAAAGA was tested, and the “pre-steady-state target cleavage rate” value was 0.0284 ± 0.0084. UAGUCUGUCACGCUUCUCUGAGAGAUUAACA was tested, and the “pre-steady-state target cleavage rate” value was 0.506 ± 0.025. In the case of UUCACUGUCACCUUCUCUGAAGAUUAACA, the “pre-steady-state target cleavage rate” value is reported as 0.038 ± 0.013. In the case of AUCACUGUCACCUUCUCUGAGAGAUUUAACA, the “pre-steady-state target cleavage rate” value is reported as 0.548 ± 0.06. For UAGUCUGUCACCUUCUCUGAGAGAUAAACA, the “pre-steady-state target cleavage rate” value was 0.344 ± 0.039. UUCACUGUCUCCUUCUCUGAGACAUUAACA was tested, and the “pre-steady-state target cleavage rate” value was 0.08 ± 0.011. In the case of UUCACUGUCACCUUCUCUGAGACUAUAACA, the “pre-steady-state target cleavage rate” value is reported as 0.00638 ± 0.0027. In the case of UUCACUGACACCUUCUCUGAGAGAAUAACA, the “pre-steady-state target cleavage rate” value is reported as 0.451 ± 0.087. In the case of AUCACUGUCACCUUCACUGAGAGAUUAUCA, the “pre-steady-state target cleavage rate” value is reported as 0.309 ± 0.044. AUCACUGUGACCUUCUCUGAGAGAUUAUCA was tested, and the “pre-steady-state target cleavage rate” value was 0.199 ± 0.023. With UAGACAGUCACCUUCACUGAGAGAUUAACA the “pre-steady-state target cleavage rate” value was 0.324 ± 0.019. With UUCACUGUCACCUUCUCUGAGAGAUUAUGA the “pre-steady-state target cleavage rate” value was 0.107 ± 0.022. For UAGUGACAGUGGUUCUCUCUCAGAUUAACA, the “pre-steady-state target cleavage rate” value was under 0.0001. For UUCACUGUCACCUACUCUGAGAGAUUAACA, the “pre-steady-state target cleavage rate” value was 0.61 ± 0.032. With UUCACUGUCGCCUUCUCUGAGAGAUUAACA the “pre-steady-state target cleavage rate” value was 0.665 ± 0.043. With UACUCUGUCACGUUCUCUGAGAGAUUAACA the “pre-steady-state target cleavage rate” value was 0.636 ± 0.028. With UUCACUGGCACCUUCUCUGAGAGAUUAACA the “pre-steady-state target cleavage rate” value was 0.728 ± 0.15. UAGUGACAGUCCUUCUCUGAGAGAUUUACA was tested, and the “pre-steady-state target cleavage rate” value was 0.0354 ± 0.0061. For UAGUGACACACCUUCUCUGAGAGAUUUAACA, the “pre-steady-state target cleavage rate” value was 0.215 ± 0.024. In the case of UAGUGACAGUCCUUCUCUGAGACAUUAACA, the “pre-steady-state target cleavage rate” value is reported as 0.0121 ± 0.0033. AUCACUGUCACCUUCUGUGAGACAUUAACA was tested, and the “pre-steady-state target cleavage rate” value was 0.163 ± 0.016. UAGUCUGUCACCAUCUCUGAGAGAAUAACA was tested, and the “pre-steady-state target cleavage rate” value was 0.232 ± 0.038. UAGUGACUGACCUUCUCAGAGAGAUUAACA was tested, and the “pre-steady-state target cleavage rate” value was 0.0136 ± 0.0049. In the case of UAGUGACAGACCCUCUCUGAGAGAUUAACA, the “pre-steady-state target cleavage rate” value is reported as 0.0244 ± 0.006. In the case of UAGUGACUCACUCUUCUCUGAGAGAUUAACA, the “pre-steady-state target cleavage rate” value is reported as 0.137 ± 0.012. For UAGUGACAGUGGAAGACUGAGAGUAUAACA, the “pre-steady-state target cleavage rate” value was under 0.0001. In the case of UAGUCUCUCACCUUCUCUGACAGAUUAACA, the “pre-steady-state target cleavage rate” value is reported as 0.418 ± 0.024. With UAGUGAGUCAGCUUCUCUGAGAGAUUAACA the “pre-steady-state target cleavage rate” value was 0.6 ± 0.036. For AUCACAGUCACCUUCUCUGUGAGAUUAACA, the “pre-steady-state target cleavage rate” value was 0.197 ± 0.025. In the case of UACACUGUCACCUUCUCUCAGAGAAUAACA, the “pre-steady-state target cleavage rate” value is reported as 0.0449 ± 0.0095. With UUGACAGUCACCUUCUCUGAGAGAUUAACA the “pre-steady-state target cleavage rate” value was 0.715 ± 0.032. In the case of UAGUGACACAGCUUCUCUGAGAGAUUAACA, the “pre-steady-state target cleavage rate” value is reported as 0.186 ± 0.017. For UACACUCUCACCUUCUCUGAGAGAUUAUCA, the “pre-steady-state target cleavage rate” value was 0.13 ± 0.03. For AUCACUGUCUCCUUCUCUGAGACAUUAACA, the “pre-steady-state target cleavage rate” value was 0.0796 ± 0.013. For UAGUGACUCACCUUCUCAGAGAGAUUAUCA, the “pre-steady-state target cleavage rate” value was 0.0393 ± 0.0058. In the case of UACACUGACACCUUCUCUGAGAGAUUAUCA, the “pre-steady-state target cleavage rate” value is reported as 0.167 ± 0.032.
